What all share (assay): two-hybrid; Clontech Matchmaker Gold; pGADT7 (AD) and pGBKT7 (BD) fusions co-transformed into Y2H Gold yeast; serial dilutions on DDO, TDO (−His/−Leu/−Trp, screens for weak interactions) and QDO (−His/−Ade/−Leu/−Trp, screens for strong interactions); 3–5 days at 30 °C
The target in one test is T1, ZYP1b (A. thaliana) (UniProt P61430).
T1 sequence: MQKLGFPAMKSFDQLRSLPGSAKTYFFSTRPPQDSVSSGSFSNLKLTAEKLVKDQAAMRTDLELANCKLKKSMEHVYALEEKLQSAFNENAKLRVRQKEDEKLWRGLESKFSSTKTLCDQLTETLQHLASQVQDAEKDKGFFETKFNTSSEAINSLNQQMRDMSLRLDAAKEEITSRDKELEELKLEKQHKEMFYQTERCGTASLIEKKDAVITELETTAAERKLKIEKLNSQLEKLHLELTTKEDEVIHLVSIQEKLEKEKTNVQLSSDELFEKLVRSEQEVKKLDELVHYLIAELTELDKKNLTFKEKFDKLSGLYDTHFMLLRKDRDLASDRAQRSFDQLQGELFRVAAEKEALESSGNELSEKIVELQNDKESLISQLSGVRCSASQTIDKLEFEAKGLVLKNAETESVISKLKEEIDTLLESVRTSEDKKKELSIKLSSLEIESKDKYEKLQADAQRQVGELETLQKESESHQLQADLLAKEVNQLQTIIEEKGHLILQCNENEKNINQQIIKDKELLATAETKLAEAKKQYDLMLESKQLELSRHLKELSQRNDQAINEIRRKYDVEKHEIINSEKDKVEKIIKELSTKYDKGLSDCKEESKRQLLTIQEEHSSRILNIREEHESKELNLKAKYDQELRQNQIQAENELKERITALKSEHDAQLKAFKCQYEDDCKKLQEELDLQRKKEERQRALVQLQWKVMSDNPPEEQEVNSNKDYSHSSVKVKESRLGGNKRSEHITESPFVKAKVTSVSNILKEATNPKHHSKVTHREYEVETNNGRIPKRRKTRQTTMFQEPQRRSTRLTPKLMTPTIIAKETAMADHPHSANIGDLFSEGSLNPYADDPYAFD

The next test concerns the target PCH2 (A. thaliana) (UniProt Q8H1F9).
For a further test, the target named is ASY3 (A. thaliana) (UniProt Q0WR66).

Results are given in words; binding and its absence hold for the method and conditions named. Some entries that bind do so weakly or less than the wild type.

B1: ZYP1b (protein, UniProt P61430 1-856)
chain: T1 sequence
For B1, the binding result in the test with ZYP1b (A. thaliana) is “binds weakly”.

B2: PCH2 (protein, UniProt Q8H1F9 1-467)
chain: MVEDPIPLPNASMEVSYQNPIEAATIPVQIAVAEPVATPNPPPCLHENKFLVSVEVCLKPSSTARLEDVQRAVERMLENRSMSYADGLVLIPADDLFLVDNVQRICICDTEEWVKNNDVLLFWQVKPVVHTFQLIEEGPCEDLCADGQPASFNEWILPAKEFDGLWESLIYESGLKQRLLRYAASALLFTQKGVNPNLVSWNRIILLHGPPGTGKTSLCKALAQKLSIRCNSRYPHCQLIEVNAHSLFSKWFSESGKLVAKLFQKIQEMVEEDGNLVFVLIDEVESLAAARKAALSGSEPSDSIRVVNALLTQMDKLKSAPNVIILTTSNITTAIDVAFVDRADIKAYVGPPTLHVRYEILRSCVEELISKGIISSFQGCDGLSIPSFSSLKEKLSESEVHDTNTVPWFCKQLIEAAKGCEGLSGRSLRKLPFLAHAALADPYSHDPSNFLCTMIETAKREKSEQPE
For B2, the binding result with PCH2 (A. thaliana) is “binds”.

B3: ASY3 (protein, UniProt Q0WR66 1-793)
chain: MSDYRSFGSNYHPSSQSRKISIGVMADSQPKRNLVPDKDDGDVIARVEKLKSATVTELQANKKEKSDLAAKQRNSAQVTGHVTSPWRSPRSSHRKLGTLESVLCKQTSSLSGSKGLNKGLNGAHQTPARESFQNCPISSPQHSLGELNGGRNDRVMDRSPERMEEPPSAVLQQKVASQREKMDKPGKETNGTTDVLRSKLWEILGKASPANNEDVNSETPEVEKTNFKLSQDKGSNDDPLIKPRHNSDSIETDSESPENATRRPVTRSLLQRRVGAKGVQKKTKAGANLGRKCTEQVNSVFSFEEGLRGKIGTAVNSSVMPKKQRGRRKNTVVKCRKAHSRKKDEADWSRKEASKSNTPPRSESTETGKRSSSSDKKGSSHDLHPQSKARKQKPDISTREGDFHPSPEAEAAALPEMSQGLSKNGDKHERPSNIFREKSVEPENEFQSPTFGYKAPISSPSPCCSPEASPLQPRNISPTLDETETPIFSFGTKKTSQGTTGQASDTEKRLPDFLEKKRDYSFRRESSPEPNEDLVLSDPSSDERDSDGSREDSPVLGHNISPEERETANWTNERSMLGPSSVKRNSNLKGIGRVVLSPPSPLSKGIDKTDSFQHCSEMDEDEDEGLGRAVALFAMALQNFERKLKSAAEKKSSEIIASVSEEIHLELENIKSHIITEAGKTSNLAKTKRKHAETRLQEQEEKMRMIHEKFKDDVSHHLEDFKSTIEELEANQSELKGSIKKQRTSHQKLIAHFEGGIETKLDDATKRIDSVNKSARGKMLQLKMIVAECLRDD
For the molecule B3, the binding result with ASY3 (A. thaliana) is given as “binds”.

Source of the values: paper PMC12711579.
